# Laboratory results as given in the RNAGym collection of RNA variant scans (doi:10.1101/gad.245936.114).
# This sample is rich in variants without activity.
# B1: tRNA (parent)
# chain: CUCUCGGUAGCCAAGUUGGUUUAAGGCGCAAGACUUUAAUUUAUCACUACGAAAUCUUGAGAUCGGGCGUUCGACUCGCCCCCGGGAGAUUUUUUCCUCGAGCAA
# Variants of: B1
# Assay: nonsense suppression (GFP-seq) (ratio to wild type); higher = more function; SUP4oc tRNA, yeast GFP reporter sort-seq
# Method in brief: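 Yeast carrying genome-integrated SUP4oc tRNA variants from a library with ~3% random mutations were grown in raffinose/galactose medium with 80 mg/L adenine. Each strain also carried a galactose-driven GFP ochre reporter and RFP. Cells were sorted into GFP/RFP bins, and each bin was Illumina-sequenced (phred ≥30). Nonsense suppression (GFPSEQ) is the bin median GFP/RFP, weighted by each variant's estimated cell share per bin, relative to wild-type SUP4oc; variants needed ≥100 reads and ≥30 cells.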
row,Variant,nonsense suppression
1,G6U C27G A62C C80U,≤ 0.026
2,G6U C27U C64A,≤ 0.026
3,G6U C29G G59C U76G,≤ 0.026
4,G6U C34A G78C,≤ 0.026
5,G6U C56A,≤ 0.026
6,G6U C56U,≤ 0.026
7,G6U C75A,≤ 0.026
8,G6U C75U,≤ 0.026
9,G6U C79U,≤ 0.026
10,G6U C80A,≤ 0.026
11,G6U G7C C82G G88A,≤ 0.026
12,G6U G7C U17C,≤ 0.026
13,G6U G7U A74C,≤ 0.026
14,G6U G7U U8A G15C A24C U57G,≤ 0.026
15,G6U G7U U22A U35G C81A,≤ 0.026
16,G6U G10U,≤ 0.026
17,G6U G10U A24C C29G A31G,≤ 0.026
18,G6U G10U C75G,≤ 0.026
19,G6U G10U U21C U71G,≤ 0.026
20,G6U G15C G26U A54G,≤ 0.026
21,G6U G18C G25A,≤ 0.026

row,Variant,nonsense suppression
1,G6U G18C U76C A87U,≤ 0.026
2,G6U G18U G59A A62C G86A,≤ 0.026
3,G6U G19C A54U G65A A74G C75U G78A,≤ 0.026
4,G6U G25U,≤ 0.026
5,G6U G32C G86A,≤ 0.026
6,G6U G61C U63G U71G,≤ 0.026
7,G6U G61U A74G G86C,≤ 0.026
8,G6U G66A,≤ 0.026
9,G6U G66C A87G,≤ 0.026
10,G6U G67A G86C,≤ 0.026
11,G6U G67C U71G C82A G85A,≤ 0.026
12,G6U G69C C77A,≤ 0.026
13,G6U U8C C11U C12U U22G A24G G26C C68U G86C,≤ 0.026
14,G6U U16C A87U,≤ 0.026
15,G6U U16C U17C G19U,≤ 0.026
16,G6U U16G G26U G67C,≤ 0.026
17,G6U U17A A33C,≤ 0.026
18,G6U U17C,≤ 0.026
19,G6U U17G C83A,1.15
20,G6U U17G U20G C64G G69C,≤ 0.026
21,G6U U21G G61C,≤ 0.026

row,Variant,nonsense suppression
1,G6U U22C C56G,≤ 0.026
2,G6U U55A G69U A87G,≤ 0.026
3,G6U U55A G85U G86A,≤ 0.026
4,G6U U55C G61U,≤ 0.026
5,G6U U55G,≤ 0.026
6,G6U U57G,≤ 0.026
7,G6U U57G A89U,≤ 0.026
8,G6U U58G U70G,≤ 0.026
9,G6U U58G U76C C80G,≤ 0.026
10,G6U U70G A89U,≤ 0.026
11,G6U U70G G73U C82U,≤ 0.026
12,G7A A9C G73A,≤ 0.026
13,G7A A9G C12G A14G,≤ 0.026
14,G7A A9U A14C G73U,≤ 0.026
15,G7A A13C U70C,≤ 0.026
16,G7A A13G U17A U57G C72A,≤ 0.026
17,G7A A13G U63C U70C C81A C83U,≤ 0.026
18,G7A A13U G26A U76C,≤ 0.026
19,G7A A13U U58G G86C,≤ 0.026
20,G7A A14C U22A C29U A30G C34A,≤ 0.026
21,G7A A14G A62G U63C,≤ 0.026

row,Variant,nonsense suppression
1,G7A A23C C56G,≤ 0.026
2,G7A A23G A74U C81G,≤ 0.026
3,G7A A23U A62G,≤ 0.026
4,G7A A24U A87G,≤ 0.026
5,G7A A30G,≤ 0.026
6,G7A A30G A60C C80U,≤ 0.026
7,G7A A30U,0.0309
8,G7A A31C U57C G69U C83A,≤ 0.026
9,G7A A31G U55A,≤ 0.026
10,G7A A54C,≤ 0.026
11,G7A A62U G73C A87U,≤ 0.026
12,G7A A74U A87G,≤ 0.026
13,G7A C11A U55A A74G,≤ 0.026
14,G7A C11G,≤ 0.026
15,G7A C11U,≤ 0.026
16,G7A C11U U35A A54C C64U C83G,≤ 0.026
17,G7A C11U U35A G78A,≤ 0.026
18,G7A C12U U55C U76A,≤ 0.026
19,G7A C27G,≤ 0.026
20,G7A C27U G67A,≤ 0.026
